The values that follow come from PubChem BioAssay (NCI).

A structure can be active in one record and inactive in another.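 Cells were grown in 96-well plates and exposed to the test compound at a single concentration for 48 hours; results are reported as percent growth, with values below 10 considered active.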 For part of its entries the source gives two or more results. This list holds those alone. The source may hold further records. The screen tested this drug many times, at the concentration stated with the values; each value is one run. Marks such as (2×) count equal records among those shown.

This test relates to IGROV1 ovarian. Description: NCI-60 one-dose screen, 48 h (100 = growth as untreated, 0 = no growth, -100 = all killed).

As for `COc1cccc2c1C(=O)c1c(O)c3c(c(O)c1C2=O)C[C@@](O)(C(=O)CO)C[C@@H]3OC1CC(N)C(O)C(C)O1` (stereo not given in full), the growth entry is, setting by setting: (0.25 µM, runs of 2017) “inactive: 40, 42.2, 34.1, 34.3, 33.4 (2×), 35.2, 30.4, 36.4 (2×), 34.5 (2×), 32.2, 37.3, 39, 37.6, 31.4 (3×), 31.2, 34.4, 28.1, 33.3, 33.2, 34.6, 30.2 (2×), 32.9 (2×), 37.4 (2×), 41.1, 31.3, 33.1 (2×), 33.5, 36.5, 35.9 (2×), 34 (2×), 30.7, 37.8, 37.1 (2×), 32.3 (2×), 35.4 (2×), 32.1, 29.9, 28, 34.8, 34.9, 36.2 (2×), 56.2, 57, 36.7, 42.7, 36.6, 36.8, 42, 45.3, 46.7, 38.5, 44.9, 35.1 (2×), 37, 29.2, 39.6, 29.1, 36, 37.9, 24.8, 35.5 (2×), 36.9, 45.4, 26, 40.4, 45.2, 38.7, 33.9%”; (0.25 µM, runs of 2018) “inactive: 40, 43.6 (2×), 34.3, 35, 39.7, 40.8, 33.3, 34.4 (2×), 32.4 (2×), 32.5, 32.1, 28.8, 39.4 (2×), 43.4, 33.4, 32.3, 35.8, 34.1, 35.5, 38.9 (2×), 32.2, 40.3, 35.2 (2×), 36.5 (2×), 30.9, 28.5, 25.7, 25.2, 40.4 (2×), 36.4, 47, 43.1, 39.5, 41.5, 42.3, 42.2, 35.1, 41, 46, 39.2 (2×), 37.2, 36.8, 38.5, 43.7, 36, 34.5, 25.3, 46.7%”; (0.25 µM, runs of 2019) “inactive: 34.9, 36, 33.1, 24.7, 32.2, 30.3, 39.3, 35.8, 47.8, 30.4, 32.8, 43.2 (3×), 50.4, 46.3, 39.9 (3×), 40.8 (3×), 43.6, 35.9, 41.3 (2×), 47.3, 44, 54.7, 53.9, 45, 42.7, 42.8, 44.7, 44.6, 47.2, 42, 42.6, 43, 45.2, 48.7, 43.4, 39.2, 42.2, 41.8, 48.5, 41.6, 38.1, 37.4, 35.7%”; (0.25 µM, runs of 2020) “inactive: 40, 33.6, 45.8, 46.8, 47.1, 41.8, 47.4, 35.9, 35.3, 36.6, 37.1 (2×), 49.1, 52.5, 50.1, 44.9, 42, 42.4, 35.7, 44.2, 39.7, 35.8, 40.6%”; (0.25 µM, runs of 2021) “inactive: 46.9, 54, 56.5, 47.7, 42.3, 42.4, 39, 41.1, 41.9 (2×), 38.1, 35.6 (2×), 42.8, 40.5, 43.3, 42.6, 43.9 (2×), 41.8 (2×), 42.7, 37.8, 38.2, 39.1, 34.6, 36.9, 39.2, 38, 43.5, 42, 41.6, 45, 36.2, 43.2, 36.7, 37.9, 40.3, 46.5, 46.7 (2×), 47.9, 34.2, 37.4, 34.4, 37.5, 39.9, 32.2 (2×), 44.3, 33.5, 48.7%”; (0.25 µM, runs of 2022) “inactive: 20, 22.6, 33.7, 32.6, 29.1, 28.2, 45.2, 38.3, 45.3, 33.6, 36.7, 42.8, 38.9, 49.5, 47.4, 47.3, 43.9, 72.4, 49.1, 91.8, 64.9, 85.2, 52.7, 52.9, 57.2, 57.7, 62.1% and active: 6.4%”. In addition, the growth entry is “inactive: 56.8, 20.1, 26.8, 12.6, 12.7% and active: -27.4, -7.04, -44.1, -9.94, -22.5, -12.7, -11.6, 0.362, -19.3, 3.12, 3.21, -18.5, -27.6, -33.7%” (25 µM, runs of 1991); “active: 7.4, -4.81, -23.9, -14.7, -30.4, -38.5, -13.1, 1.62, -5.5, 2.94, -3.53, -15.4 (2×), -24.3, -19, -9.34, 1.76, -9.55, -31.7, -4.42, -26.7, -6.15, 2.83, -25.1, -2.1, -7.86, -13.5, -29.6, -50.3, -41.7, -11.5, -19.1, -31.9, -27.6, -41.6, -29.2, -15.6, -6.84, -6.07, -8.37, -35.4, -35.6, -15.2 (2×), -6.89, -24.1 (3×), -22.5, -37.7, -35, -43.5, -28.5, -24.7, -16.5, 0.498, 0.8, -6.19, -19.6, -11, -31, -11.2, -22.4, 0.677, 5.37, -20, -41.4, -15.9, -35.8, -40.3, -5.27, -11.1, -19.7, -18.1, -26.3 (2×), 5.25, -24.4, -27.4, -28, -35.9, -34, -82.8, -12.3, -19.4, -4.12, -3.11, -18.8, -34.7, -23.4, -6.63, -13.6, -10.9, -37.2, -10.5, -30.3, -5.79, -2.83, -20.1, -43.8, -28.7, -34.2, -76.1, -78.3, 1.61, 5.52, -17.3, -66.1, -4.17, -25.8, 4.13, -17.9, -49.6, -23.3, -24.2, -22.3, -8.32, -44.7, -63.3% and inactive: 10.7%” (25 µM, runs of 1992); “active: -34.9, -7.66, -40.6, -44.1, -15.7, -14, 3.49, -46, 0.646, -31, -29.6, -40.9, 2.58, -20, -29.2, -34.5, -31.8, -14.9, -28.9, -53.7, -34.2, 3.45, -29.8, -18.1, -21, -8.94, -15.1, 0.317, 1.66, -47.6, -27.3, -55.9, -69.6, -50.8, -23.3, -23.9, -48.4, -19.6, -51.2, -39.9, -6.4, -40.5% and inactive: 11.8%, 10.4%, 17.3%” (25 µM, runs of 1993); “active: -12.5, -31, -42.6, -22.6, -49.7, -23.1 (2×), -47.9, -50.4, -14.8, -41.7, -40.2, -58.5, -46.8, 6.74, -22.2, -30.5, -44.1, 2.75, -29.9, -3.14, -35.4, -34.5, -29.5, 1.22, -2.6, -19.3, -29.1, -37.8, -39.5, -25.8, 3.67, -18.5, -23.4% and inactive: 103%” (25 µM, runs of 1994); “active: -18, -66.3, -57.1, -28.8, -20.6, 0.926, -9.64, -4.9, -19.1, -23.7, -67.8, -6.54, -36.7, -14.5, 2.9, -21.3, -28.4, -10.3, -59.6, -42.3, 1.92, -51.5, -25.2, -28, -39.5, -60.1, -19.4, -41.6, 3.42, -3.03, -20.7, 4.36, -23.8, -60.5, -7.12, -38.3, -21.7% and inactive: 13.7%, 73.6%” (25 µM, runs of 1995); “active: -42.9, -22 (2×), -34, -34.4, 3.14, -0.124, 2.25, -29, -22.4, 3.17, -21.6, -30.8, -11.6, -16.6, -37.6, -43.4, -27.8, 4.91, -29.9, -45.2 (2×), -30.9, -54.6, -55.8, -23.8, -63.5, -32.3, -57.5, -40.5, -44, -49.6, -38.6, -26.2, -28.3, -44.4, -54.3, -50.9, -42.3, -5.74, -11, -42, -34.1, -23.6, -15.5, -46.3, 2.84, -27.3, 8.98, -27.6, -40.3, -59.4, -26.8, -19.4% and inactive: 13%, 81.5%, 27.9%” (25 µM, runs of 1996). For the same compound, the growth result reads like this: (25 µM, runs of 1997) “active: 4.9, 0.269, -44, -25.7, -23.3, -39.7, -9.4, -28, -31.5, 1.89, -49.5, -11.2, 7.91, 8.83, -36.3, -41.7, -20.5, -50.6, -14, -36.6, -2.4, -57.7, -45.3, -6.11, -25.6, 6.48, 0, -47, -31.6, -27.8, -3.3, -43.8, 0.612, -64.7% and inactive: 11.9%, 12.4%”; (25 µM, runs of 1998) “active: -7.24, -51.4, -69, -41.3, -32.3, -47.7, -40.5, 0.34, -31.6, -63.4, -69.8, -84.8, -49.8, -24.6, 1.94, -77.9, -24.1, -3.34% and inactive: 19.3%”; (25 µM, runs of 1999) “active: -95.3, -70.4, -49.2, -22, -98.2, -10.3, -100 (2×), -62.5, -60.8, 0.502, -54.2, 2.32, -92.2, -1.54, -36.7, -17.1%”.
